According to PubChem BioAssay (Tox21):
Where “and” joins values, the source holds several entries; their conditions need not be identical. Identical values can stand only once. Inconclusive means that the source gave no clear call. Such entries were picked first, then a sample of the others. Where the call is inconclusive, the potency comes from a doubtful curve fit. Calls of active or inactive are those of the source. Unless noted, the call rests on the fitted dose curve.

Tests used:
[1] = target: Progesterone receptor (Homo sapiens) (UniProt P06401); assay: qHTS assay to identify small molecule agonists of the progesterone receptor (PR) signaling pathway (AID 1346784); conditions: PR-UAS-bla HEK293T, beta-lactamase FRET ratio, 16 h; activation: at 92.4 µM (top of the series) unless noted; further: nearly all actives have a fitted effect of over 30% in size; on activation: on the % scale 0 is the no-effect control and ±100 the full control effect
In short: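 Compounds were tested for PR agonism in HEK 293T cells bearing a beta-lactamase gene under UAS control. Treatment lasted 16 hr at 37C; signal came from fluorescence of a FRET substrate.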

[2] = target: Progesterone receptor (Homo sapiens) (UniProt P06401); assay: qHTS assay to identify small molecule antagonists of the progesterone receptor (PR) signaling pathway (AID 1346795; active means well fitted inhibition curve with a large enough effect in the signal ratio in the repeat runs, not every such curve was filed as active; inconclusive means weak or mixed curves; the % refers to the signal ratio; on activity change, negative = inhibition: on the % scale 0 is the no-effect control and ±100 the full control effect); conditions: PR-UAS-bla HEK293T, beta-lactamase FRET ratio, 16 h; activity change, negative = inhibition: at 92.4 µM (top of the series) unless noted
In short: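 In HEK293T cells bearing the PR-UAS-bla reporter, compound effects on promegestone-driven (1 nM) beta-lactamase expression are assessed after 16 hr using a fluorescent FRET substrate incubated 2 hr at room temperature.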

[3] = qHTS assay to identify small molecule antagonists of the progesterone receptor (PR) signaling pathway - cell viability counter screen (AID 1346798; active means well fitted curve in the direction sought with a large enough effect in the repeat runs; inconclusive means weak or mixed curves; inactive means no such curve, though single readings can be large; an effect the other way counts as inactive or inconclusive; further: nearly all actives have a fitted effect of over 50% in size)
In short: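 Following a 4 hr attachment, PR-UAS-bla HEK293T cells in charcoal-stripped FBS medium were exposed to compounds with R5020 for 16 hr; CellTiter-Glo was added and luminescence read after 30 min at room temperature.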

[4] = qHTS assay to identify small molecule agonists of the progesterone receptor (PR) signaling pathway - cell viability counter screen (AID 1346799); further: nearly all actives have a fitted effect of over 45% in size
In short: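 Here, 3,000 PR-UAS-bla HEK293T cells per well were treated with compounds for 16 hr after a 6 hr preincubation at 37C and 5% CO2; cell viability is the CellTiter-Glo luminescence signal.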

[5] = qHTS assay to identify small molecule agonists of the TGF-beta/Smad signaling pathway (AID 1346859; active means well fitted activation curve with a large enough effect in the signal ratio in the repeat runs, not every such curve was filed as active; inconclusive means weak or mixed curves; the % refers to the signal ratio; on activation: on the % scale 0 is the no-effect control and ±100 the full control effect); conditions: SBE-bla HEK293T, TGF-beta/Smad beta-lactamase reporter, 5 h; activation: at 76.8 µM (top of the series) unless noted
In short: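 Each well held 4,000 SBE-bla HEK 293T cells incubated overnight before compound addition; 5 hr later the cleavable FRET substrate went on for 2 hr at room temperature, and fluorescence was read at two emissions.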

[6] = qHTS assay to identify small molecule antagonists of the TGF-beta/Smad signaling pathway - cell viability counter screen (AID 1346824; active means well fitted curve in the direction sought with a large enough effect in the repeat runs; inconclusive means weak or mixed curves; inactive means no such curve, though single readings can be large; an effect the other way counts as inactive or inconclusive; further: nearly all actives have a fitted effect of over 50% in size)
In short: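 SBE-bla HEK 293T cells were plated overnight at 37 C, then given compounds in DMSO plus TGF-beta1 (added as 0.25 ng/mL solution) for 5 hr. After the bla read, CellTiter-Glo was added to the same wells and luminescence read after 30 min at room temperature.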

[7] = qHTS assay to identify small molecule agonists of the TGF-beta/Smad signaling pathway - cell viability counter screen (AID 1346829; active means well fitted curve in the direction sought with a large enough effect in the repeat runs; inconclusive means weak or mixed curves; inactive means no such curve, though single readings can be large; an effect the other way counts as inactive or inconclusive; further: nearly all actives have a fitted effect of over 45% in size)
In short: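 Compound-treated SBE-bla HEK 293T cells (5 hr, 37 C) were assessed for viability with CellTiter-Glo in parallel with the reporter read.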
Potency means the concentration at half of the fitted maximal effect; tags describe the fitted curve by direction and shape or compound fluorescence and quenching.

Sequence of UniProt P06401 (P06401 whole entry, looked up): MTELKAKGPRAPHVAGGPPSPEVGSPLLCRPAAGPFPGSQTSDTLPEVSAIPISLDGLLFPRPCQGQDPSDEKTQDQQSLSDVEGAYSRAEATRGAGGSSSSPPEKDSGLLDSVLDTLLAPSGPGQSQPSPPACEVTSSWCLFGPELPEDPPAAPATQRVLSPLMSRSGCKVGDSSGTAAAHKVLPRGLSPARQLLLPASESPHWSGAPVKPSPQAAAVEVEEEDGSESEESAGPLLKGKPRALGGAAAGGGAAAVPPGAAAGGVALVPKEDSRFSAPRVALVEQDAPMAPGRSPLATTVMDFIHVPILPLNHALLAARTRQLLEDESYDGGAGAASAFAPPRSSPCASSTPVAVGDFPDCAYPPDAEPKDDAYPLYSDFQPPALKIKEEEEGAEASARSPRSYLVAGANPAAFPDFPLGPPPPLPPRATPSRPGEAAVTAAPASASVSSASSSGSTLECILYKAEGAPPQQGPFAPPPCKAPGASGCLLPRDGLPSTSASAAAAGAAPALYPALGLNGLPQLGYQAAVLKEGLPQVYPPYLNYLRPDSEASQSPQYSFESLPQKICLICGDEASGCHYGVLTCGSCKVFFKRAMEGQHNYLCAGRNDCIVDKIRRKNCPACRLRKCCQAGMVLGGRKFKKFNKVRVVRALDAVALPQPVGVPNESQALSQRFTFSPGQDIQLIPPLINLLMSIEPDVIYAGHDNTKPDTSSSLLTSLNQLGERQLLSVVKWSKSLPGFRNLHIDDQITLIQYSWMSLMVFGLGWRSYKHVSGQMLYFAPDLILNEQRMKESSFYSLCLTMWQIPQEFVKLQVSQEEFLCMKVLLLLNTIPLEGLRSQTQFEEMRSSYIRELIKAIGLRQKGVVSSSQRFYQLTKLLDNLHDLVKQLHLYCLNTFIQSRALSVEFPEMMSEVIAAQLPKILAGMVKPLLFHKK

SMILES: Nc1cccc2c(=O)[nH][nH]c(=O)c12
- activation [1]: inconclusive: 22.4%
- Potency [2]: inactive
- Potency [3]: inconclusive: 5.48 µM [cytotoxic, partial curve]
- Potency [4]: inconclusive: 77.4 µM [rising, single point]

SMILES: O=C(OCC(COC(=O)c1ccccc1)(COC(=O)c1ccccc1)COC(=O)c1ccccc1)c1ccccc1
- Potency [1]: inconclusive: 48.5 µM [cytotoxic]
- Potency [2]: inconclusive: 54.4 µM [falling, partial curve]
- Potency [5]: inactive

SMILES: O=C(O)C1(C(=O)Nc2ccc(Cl)cc2Cl)CC1
- activation [1]: inconclusive: 13.1%
- activity change, negative = inhibition [2]: inconclusive: -13.3%
- Potency [3]: inconclusive: 17.2 µM [cytotoxic, partial curve]
- Potency [4]: inconclusive: 24.3 µM [cytotoxic, partial curve, poor fit]
- Potency [5]: inconclusive: 6.92 µM [rising, partial curve]

SMILES: CCOC(=O)c1nc(C(Cl)(Cl)Cl)n(-c2ccc(Cl)cc2Cl)n1
- Potency [1]: inconclusive: 77 µM [cytotoxic, single point]
- Potency [2]: inconclusive: 17.2 µM [rising, partial curve]
- Potency [3]: active: 61.1 µM
- Potency [4]: active: 61.1 µM
- Potency [5]: inconclusive: 61.6 µM [rising, single point]

SMILES: O=C1CCC(=O)N1Cl
- Potency [1]: inconclusive: 122 µM [rising, partial curve, poor fit]
- Potency [2]: inactive
- Potency [4]: inconclusive: 3.86 µM [cytotoxic, partial curve, poor fit]

SMILES: OCCCCCCO
- activation [1]: inconclusive: 2.69%
- activity change, negative = inhibition [2]: inconclusive: -28%
- Potency [3]: active: 61.9 µM
- Potency [4]: active: 19.6 µM

SMILES: O=C1Nc2ccc(Cl)cc2[C@@](C#CC2CC2)(C(F)(F)F)O1
- Potency [1]: inconclusive: 23.7 µM [falling, partial curve]
- Potency [2]: active: 7.5 µM
- Potency [3]: inconclusive: 9.44 µM [rising, partial curve]
- Potency [6]: inconclusive: 13.4 µM [cytotoxic, partial curve, poor fit]

SMILES: CO/N=C1\CN(c2nc3c(cc2F)c(=O)c(C(=O)O)cn3C2CC2)CC1CN (configuration not stated)
- activation [1]: inconclusive: 18.1% [at 42.5 µM]
- Potency [2]: inconclusive: 15 µM [rising, partial curve]
- Potency [4]: inactive

SMILES: O=C(O)CC(=O)O
- Potency [1]: inactive
- Potency [2]: inactive
- Potency [6]: inactive

SMILES: COCCOC(=O)C1=C(C)NC(C)=C(C(=O)OC(C)C)C1c1cccc([N+](=O)[O-])c1 (configuration not stated)
- Potency [1]: inconclusive: 37.6 µM [falling, single point]
- Potency [2]: active: 10.6 µM
- Potency [4]: inconclusive: 9.44 µM [rising, single point]
- Potency [7]: inactive

SMILES: CC(C)CC(C)(O)C#CC(C)(O)CC(C)C (configuration not stated)
- activation [1]: inconclusive: -11.3%
- Potency [2]: inconclusive: 77 µM
- Potency [3]: inconclusive: 13.4 µM [cytotoxic, single point] and inconclusive: 68.6 µM [cytotoxic, partial curve, poor fit]
- Potency [4]: inconclusive: 13.7 µM [cytotoxic, full curve, poor fit]
- Potency [6]: inconclusive: 53.8 µM [cytotoxic, single point]
- Potency [7]: inconclusive: 42.8 µM [cytotoxic, partial curve, poor fit]
- Potency [5]: inconclusive: 24 µM [rising, partial curve]

SMILES: NS(=O)(=O)O
- Potency [1]: inactive
- activity change, negative = inhibition [2]: inconclusive: 3.81%
- Potency [4]: inconclusive: 27.9 µM [cytotoxic, partial curve]

SMILES: Clc1ccc2cc3ccccc3cc2c1
- activation [1]: inconclusive: 2.7%
- Potency [2]: inconclusive: 9.68 µM [falling, full curve]
- Potency [5]: inconclusive: 43.6 µM [fluorescent, partial curve]

SMILES: Clc1ccccc1-c1nc(-c2ccncc2)no1
- Potency [1]: inactive
- Potency [2]: active: 26.6 µM
- Potency [3]: inconclusive: 33.5 µM [rising, single point]
- Potency [4]: inconclusive: 23.7 µM [rising, partial curve]
- Potency [5]: inactive

SMILES: O=S(=O)(O)c1ccc(Nc2nc(Nc3ccc(/C=C/c4ccc(Nc5nc(Nc6ccc(S(=O)(=O)O)cc6)nc(N(CCO)CCO)n5)cc4S(=O)(=O)O)c(S(=O)(=O)O)c3)nc(N(CCO)CCO)n2)cc1
- activation [1]: inconclusive: 11.1% [at 42.5 µM]
- activity change, negative = inhibition [2]: inconclusive: 16.5% [at 42.5 µM]
- Potency [5]: active: 33.1 µM

SMILES: CCCCC(=O)O[C@]1(C(=O)CO)[C@H](C)C[C@H]2[C@@H]3CCC4=CC(=O)C=C[C@]4(C)[C@@]3(F)[C@@H](O)C[C@@]21C
- Potency [1]: inconclusive: 0.0053 µM [falling, full curve, poor fit]
- Potency [4]: inconclusive: 1.88 µM [rising, partial curve]
- Potency [5]: inactive
